Some of the results follow.
test system: HSkMC (human skeletal muscle cells); experiment: cytotoxicity call (relative viability < 0.9); details: 10 µM

| SMILES | cytotoxicity call |
| --- | --- |
| COc1ccc(S(=O)(=O)N(C)C[C@@H]2Oc3ccc(N(C)C)cc3C(=O)N([C@H](C)CO)C[C@@H]2C)cc1 | inactive |
| C[C@@H]1CCCCO[C@@H](CN(C)C(=O)Nc2ccc(C(F)(F)F)cc2)[C@H](C)CN([C@@H](C)CO)C(=O)c2cc(NC(=O)Nc3cccc4ccccc34)ccc2O1 | inactive |
| O=S(=O)(NCC[C@@H]1CC[C@@H](NS(=O)(=O)c2cccc(Cl)c2)[C@@H](CO)O1)c1cccc(F)c1 | inactive |
| O=C(C[C@@H]1C=C[C@H](NC(=O)c2ccncc2)[C@@H](CO)O1)NCc1ccncn1 | inactive |
| C[C@@H]1CN([C@@H](C)CO)C(=O)c2cc(NC(=O)c3ccccc3)ccc2O[C@@H](C)CCCCO[C@@H]1CN(C)S(=O)(=O)c1ccc(Cl)cc1 | inactive |
| CC(C)NC(=O)Nc1ccc2c(c1)C(=O)N([C@H](C)CO)C[C@H](C)[C@H](CN(C)C(=O)Nc1ccc(F)cc1)OCCCC[C@H](C)O2 | inactive |
| CSCC[C@H](N)C(=O)O | inactive |
| C[C@H](CO)N1C[C@H](C)[C@@H](CN(C)C(=O)Nc2cccc3ccccc23)Oc2c(NC(=O)Nc3ccccc3)cccc2C1=O | inactive |
| C[C@@H](C(=O)O)n1ncccc1=O | inactive |
| Cc1ccccc1C(=O)Nc1ccc(C(=O)N2CCCC(O)c3cc(Cl)ccc32)c(C)c1 (stereo not drawn) | inactive |
| NC1CCN(c2cccc(Cl)n2)CC1 | inactive |
| C[C@@H]1CN([C@@H](C)CO)C(=O)c2c(c3ccccc3n2C)-c2ccccc2CO[C@H]1CN(C)C(=O)Nc1ccc(-c2ccccc2)cc1 | inactive |
| CCCNC(=O)N(C)C[C@@H]1Oc2ncc(-c3ccc(C(=O)N(C)C)cc3)cc2C(=O)N([C@H](C)CO)C[C@H]1C | inactive |

Reference: the antibiotic and cytotoxicity screens of Wong et al. (2023)
